{"source": "the supplement of paper PMC10126150", "note": "Sequences with one replicate were seen in a single cluster, so their values are uncertain.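 Also: ATP exposure 15 min at 22 °C before imaging.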"}
{"test_system": "ATP", "test": "switch fluorescence ratio, 500 uM ATP over buffer (Cy3 cluster intensity, sum of 5 cycles each) (fold (ratio)); higher = stronger signal-on switching upon ATP binding; sequences stand for … in TCGTCGGCAGCGTCAGATGTGTATAAGAGACAGTTTTTTTTTTTTTTTTTTTTTTTTT…TC", "details": "aptamer strand: ATP DNA aptamer (quencher-CACCTGGGGGAGTATTGCGGAGGAAGG + anchor), 100 nM annealed; ATP concentration: 500 uM; one replicate", "how_it_was_run": "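Cy3-labelled switching-strand clusters on a modified Illumina MiSeq flow-cell were annealed to 100 nM quencher-labelled ATP aptamer and imaged first in selection buffer, then after 15 min with 500 uM ATP at 22 °C. NaOH stripping and re-annealing separated each of five buffer/ATP cycles, and clusters outside 100-1000 RFU were excluded. The fluorescence ratio sums target-cycle Cy3 intensity over buffer-cycle Cy3 intensity per cluster and averages it per switch-domain sequence.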"}
{"sequence": "GTCTCCCCGC", "switch fluorescence ratio": 1.52}
{"sequence": "GTCTCTCGCG", "switch fluorescence ratio": 0.99}
{"sequence": "GTCTCTGCCG", "switch fluorescence ratio": 0.995}
{"sequence": "GTCTGATAGC", "switch fluorescence ratio": 1.02}
{"sequence": "GTCTGCGGTC", "switch fluorescence ratio": 1.07}
{"sequence": "GTCTGGAACA", "switch fluorescence ratio": 1.04}
{"sequence": "GTCTGTAAGC", "switch fluorescence ratio": 1.04}
{"sequence": "GTCTGTACCG", "switch fluorescence ratio": 0.971}
{"sequence": "GTCTGTGATT", "switch fluorescence ratio": 0.993}
{"sequence": "GTCTTATG", "switch fluorescence ratio": 1.06}
{"sequence": "GTCTTGCCTT", "switch fluorescence ratio": 1}
{"sequence": "GTCTTGGTGC", "switch fluorescence ratio": 1.09}
{"sequence": "GTCTTTATGG", "switch fluorescence ratio": 1.03}
{"sequence": "GTCTTTCGTT", "switch fluorescence ratio": 1.03}
{"sequence": "GTGAAAATAT", "switch fluorescence ratio": 0.969}
{"sequence": "GTGAAAGTAT", "switch fluorescence ratio": 0.995}
{"sequence": "GTGAAATGG", "switch fluorescence ratio": 0.999}
{"sequence": "GTGAAATGGC", "switch fluorescence ratio": 0.914}
{"sequence": "GTGAACCAGG", "switch fluorescence ratio": 1.28}
{"sequence": "GTGAACGATT", "switch fluorescence ratio": 1.01}
{"sequence": "GTGAACGGGT", "switch fluorescence ratio": 1.02}
{"sequence": "GTGAAGCGTT", "switch fluorescence ratio": 0.989}
{"sequence": "GTGAATGACT", "switch fluorescence ratio": 0.973}
{"sequence": "GTGACAGTGG", "switch fluorescence ratio": 0.99}
{"sequence": "GTGACAGTTT", "switch fluorescence ratio": 1.01}
{"sequence": "GTGAGAAATG", "switch fluorescence ratio": 0.984}
{"sequence": "GTGAGAACGC", "switch fluorescence ratio": 0.968}
{"sequence": "GTGAGAGTGG", "switch fluorescence ratio": 0.986}
{"sequence": "GTGAGCTATC", "switch fluorescence ratio": 1.06}
{"sequence": "GTGAGCTCGT", "switch fluorescence ratio": 1.08}
{"sequence": "GTGAGCTGGC", "switch fluorescence ratio": 1.04}
{"sequence": "GTGAGGGTAC", "switch fluorescence ratio": 0.953}
{"sequence": "GTGATCATGG", "switch fluorescence ratio": 1.01}
{"sequence": "GTGATCGTGG", "switch fluorescence ratio": 1.01}
{"sequence": "GTGATGAGGG", "switch fluorescence ratio": 1.02}
{"sequence": "GTGATGCTTC", "switch fluorescence ratio": 1.01}
{"sequence": "GTGATTAAAC", "switch fluorescence ratio": 0.985}
{"sequence": "GTGATTAATT", "switch fluorescence ratio": 0.958}
{"sequence": "GTGATTTTTC", "switch fluorescence ratio": 0.924}
{"sequence": "GTGCAAACGG", "switch fluorescence ratio": 1.03}
{"sequence": "GTGCAAAGCG", "switch fluorescence ratio": 0.993}
{"sequence": "GTGCAAGAGT", "switch fluorescence ratio": 1.07}
{"sequence": "GTGCAATCTG", "switch fluorescence ratio": 1.13}
{"sequence": "GTGCAATTGG", "switch fluorescence ratio": 1.09}
{"sequence": "GTGCACGGTC", "switch fluorescence ratio": 1.01}
{"sequence": "GTGCAGGGTG", "switch fluorescence ratio": 1.22}
{"sequence": "GTGCATAGTC", "switch fluorescence ratio": 1.05}
{"sequence": "GTGCATCCG", "switch fluorescence ratio": 0.995}
{"sequence": "GTGCCACGTA", "switch fluorescence ratio": 1.01}
{"sequence": "GTGCCTCGAT", "switch fluorescence ratio": 0.991}
{"sequence": "GTGCCTTCCG", "switch fluorescence ratio": 2}
{"sequence": "GTGCGAGGGC", "switch fluorescence ratio": 1.02}
{"sequence": "GTGCGCGG", "switch fluorescence ratio": 0.966}
{"sequence": "GTGCGGTATC", "switch fluorescence ratio": 1.06}
{"sequence": "GTGCGTATGG", "switch fluorescence ratio": 1.03}
{"sequence": "GTGCGTGAGG", "switch fluorescence ratio": 1.02}
{"sequence": "GTGCTAAGAC", "switch fluorescence ratio": 1.2}
{"sequence": "GTGCTAATCA", "switch fluorescence ratio": 0.982}
{"sequence": "GTGCTAGTG", "switch fluorescence ratio": 1.09}
{"sequence": "GTGCTAGTGA", "switch fluorescence ratio": 1}
{"sequence": "GTGCTCTCGG", "switch fluorescence ratio": 1.02}
{"sequence": "GTGCTGGG", "switch fluorescence ratio": 1}
{"sequence": "GTGCTGGGGA", "switch fluorescence ratio": 0.99}
{"sequence": "GTGCTGTCGG", "switch fluorescence ratio": 1.06}
{"sequence": "GTGCTTAGTC", "switch fluorescence ratio": 0.963}
{"sequence": "GTGCTTGTTT", "switch fluorescence ratio": 0.98}
{"sequence": "GTGCTTTTAT", "switch fluorescence ratio": 0.996}
{"sequence": "GTGGAGGCCC", "switch fluorescence ratio": 0.991}
{"sequence": "GTGGAGGCTG", "switch fluorescence ratio": 1}
{"sequence": "GTGGCAAGGT", "switch fluorescence ratio": 0.992}
{"sequence": "GTGGCACAGG", "switch fluorescence ratio": 1.05}
{"sequence": "GTGGCACCGG", "switch fluorescence ratio": 0.998}
{"sequence": "GTGGCCTGG", "switch fluorescence ratio": 1.01}
{"sequence": "GTGGCGCCGT", "switch fluorescence ratio": 1.03}
{"sequence": "GTGGCTATCC", "switch fluorescence ratio": 1.02}
{"sequence": "GTGGGATGTG", "switch fluorescence ratio": 0.977}
{"sequence": "GTGGGATT", "switch fluorescence ratio": 0.979}
{"sequence": "GTGGGCAGTC", "switch fluorescence ratio": 1.09}
{"sequence": "GTGGGTAAGC", "switch fluorescence ratio": 1.01}
{"sequence": "GTGGGTCTTC", "switch fluorescence ratio": 1.01}
{"sequence": "GTGGGTGATT", "switch fluorescence ratio": 1.03}
{"sequence": "GTGGGTGGCG", "switch fluorescence ratio": 1.09}
{"sequence": "GTGGTAAAAC", "switch fluorescence ratio": 0.975}
{"sequence": "GTGGTTATAA", "switch fluorescence ratio": 1.03}
{"sequence": "GTGGTTCGGT", "switch fluorescence ratio": 0.992}
{"sequence": "GTGGTTGTGT", "switch fluorescence ratio": 0.983}
{"sequence": "GTGGTTTGT", "switch fluorescence ratio": 0.972}
{"sequence": "GTGTAAATGA", "switch fluorescence ratio": 0.992}
{"sequence": "GTGTAATGCG", "switch fluorescence ratio": 0.968}
{"sequence": "GTGTAATGTT", "switch fluorescence ratio": 0.982}
{"sequence": "GTGTACAAGG", "switch fluorescence ratio": 0.987}
{"sequence": "GTGTACTCTT", "switch fluorescence ratio": 1.07}
{"sequence": "GTGTAGACGA", "switch fluorescence ratio": 0.981}
{"sequence": "GTGTAGAGGA", "switch fluorescence ratio": 0.96}
{"sequence": "GTGTAGGGG", "switch fluorescence ratio": 0.982}
{"sequence": "GTGTATACCC", "switch fluorescence ratio": 1.02}
{"sequence": "GTGTATATAG", "switch fluorescence ratio": 0.988}
{"sequence": "GTGTATTAAG", "switch fluorescence ratio": 0.985}
{"sequence": "GTGTATTCGG", "switch fluorescence ratio": 0.962}
{"sequence": "GTGTCACGCG", "switch fluorescence ratio": 1.07}
{"sequence": "GTGTCCAGTG", "switch fluorescence ratio": 1.1}
{"sequence": "GTGTCCATTT", "switch fluorescence ratio": 0.989}
{"sequence": "GTGTCCGGCA", "switch fluorescence ratio": 1.06}
{"sequence": "GTGTCGCACT", "switch fluorescence ratio": 0.994}
{"sequence": "GTGTCGGTCT", "switch fluorescence ratio": 1.04}
{"sequence": "GTGTCGTTAG", "switch fluorescence ratio": 0.978}
{"sequence": "GTGTCTATAG", "switch fluorescence ratio": 0.993}
{"sequence": "GTGTCTCTAT", "switch fluorescence ratio": 1.03}
{"sequence": "GTGTGACATG", "switch fluorescence ratio": 0.992}
{"sequence": "GTGTGCATC", "switch fluorescence ratio": 0.994}
{"sequence": "GTGTGCGGCA", "switch fluorescence ratio": 1.01}
{"sequence": "GTGTGCGTGC", "switch fluorescence ratio": 0.943}
{"sequence": "GTGTGCTAGA", "switch fluorescence ratio": 1.04}
{"sequence": "GTGTGCTGGT", "switch fluorescence ratio": 0.963}
{"sequence": "GTGTGGACAG", "switch fluorescence ratio": 1.07}
{"sequence": "GTGTTAATGT", "switch fluorescence ratio": 0.991}
{"sequence": "GTGTTAGAAA", "switch fluorescence ratio": 0.987}
{"sequence": "GTGTTCTAAG", "switch fluorescence ratio": 1.02}
{"sequence": "GTGTTGAAAT", "switch fluorescence ratio": 1.02}
{"sequence": "GTGTTGATGC", "switch fluorescence ratio": 0.986}
{"sequence": "GTGTTGTCAT", "switch fluorescence ratio": 0.961}
{"sequence": "GTGTTTAATA", "switch fluorescence ratio": 1.03}
{"sequence": "GTGTTTATAC", "switch fluorescence ratio": 1.04}
{"sequence": "GTGTTTCAGT", "switch fluorescence ratio": 0.963}
{"sequence": "GTTAAAACAC", "switch fluorescence ratio": 1.04}
{"sequence": "GTTAAAGGTT", "switch fluorescence ratio": 1.08}
{"sequence": "GTTAACTGCG", "switch fluorescence ratio": 1.05}
{"sequence": "GTTAAGGACT", "switch fluorescence ratio": 1.02}
{"sequence": "GTTAATCATT", "switch fluorescence ratio": 0.984}
{"sequence": "GTTACAAGGT", "switch fluorescence ratio": 0.972}
{"sequence": "GTTACAGTGT", "switch fluorescence ratio": 1}
{"sequence": "GTTACATATC", "switch fluorescence ratio": 1.05}
{"sequence": "GTTACCATGT", "switch fluorescence ratio": 0.987}
{"sequence": "GTTACCTAAT", "switch fluorescence ratio": 1.01}
{"sequence": "GTTACGGCTG", "switch fluorescence ratio": 0.985}
{"sequence": "GTTACGGGAT", "switch fluorescence ratio": 1.02}
{"sequence": "GTTACTAAAA", "switch fluorescence ratio": 0.987}
{"sequence": "GTTACTCGAC", "switch fluorescence ratio": 1.23}
{"sequence": "GTTACTGAGC", "switch fluorescence ratio": 1.02}
{"sequence": "GTTACTTAG", "switch fluorescence ratio": 1.08}
{"sequence": "GTTACTTTCG", "switch fluorescence ratio": 1.05}
{"sequence": "GTTAGACAGC", "switch fluorescence ratio": 1.01}
{"sequence": "GTTAGACTGG", "switch fluorescence ratio": 1.02}
{"sequence": "GTTAGAGGTG", "switch fluorescence ratio": 1.03}
{"sequence": "GTTAGATGAG", "switch fluorescence ratio": 1.02}
{"sequence": "GTTAGATTTA", "switch fluorescence ratio": 0.963}
{"sequence": "GTTAGCAATT", "switch fluorescence ratio": 1.32}
{"sequence": "GTTAGCGACC", "switch fluorescence ratio": 1.04}
{"sequence": "GTTAGGATAG", "switch fluorescence ratio": 0.982}
{"sequence": "GTTAGGATAT", "switch fluorescence ratio": 1}
{"sequence": "GTTAGGCAGT", "switch fluorescence ratio": 1.03}
{"sequence": "GTTAGGGCTG", "switch fluorescence ratio": 1}
{"sequence": "GTTAGGTCTT", "switch fluorescence ratio": 0.958}
